In PubChem BioAssay AID720506 (National Center for Advancing Translational Sciences (NCATS), 2013):
Screen size: about 2,300 compounds; about 95 (4%) were called active. The inconclusive results got no clear call from the source; some entries with a clear call stand among them for comparison. Calls follow the shape of the dose curve; as a rule, active = well fitted activation curve with a large enough effect; inconclusive = small, poorly fitted or top-dose-only effect; inactive = flat fitted curve, though single readings scatter. Where the call is inconclusive, the potency comes from a doubtful curve fit.

target: D(3) dopamine receptor (Homo sapiens) (UniProt P35462); assay: qHTS of D3 Dopamine Receptor Agonist: D3 Dopamine Receptor B-arrestin Agonist Confirmatory Assay; details: DiscoveRx D3 beta-arrestin cells, luminescence, 90 min; activation: at 76.9 µM (top of the series); also: nearly all actives have a fitted effect of over 70% in size;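 as to activation: 100% = dopamine control response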
How it was run: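 DiscoveRx D3 β-arrestin cells, plated overnight at 37 °C, received pinned test compounds with dopamine controls for 90 minutes at 37 °C. Detection reagent was then added for 30 - 60 minutes at room temperature, and luminescence was read.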
Potency is read from the fitted curve at half-maximal effect; tags tell the direction and shape of the fitted curve.

Sequence of UniProt P35462 (P35462 whole entry, looked up): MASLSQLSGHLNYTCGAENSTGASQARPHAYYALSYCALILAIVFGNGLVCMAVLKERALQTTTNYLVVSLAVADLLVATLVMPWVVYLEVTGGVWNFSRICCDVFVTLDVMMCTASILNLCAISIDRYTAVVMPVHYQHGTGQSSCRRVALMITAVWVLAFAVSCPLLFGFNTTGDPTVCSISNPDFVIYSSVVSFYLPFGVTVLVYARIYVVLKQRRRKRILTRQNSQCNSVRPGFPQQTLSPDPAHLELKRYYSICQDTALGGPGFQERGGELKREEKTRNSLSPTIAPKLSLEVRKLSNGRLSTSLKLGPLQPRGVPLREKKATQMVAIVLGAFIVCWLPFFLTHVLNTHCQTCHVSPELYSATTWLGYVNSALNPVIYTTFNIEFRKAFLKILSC

Row | SMILES | Potency | activation
1 | Cc1ccccc1C(=O)O/N=C(\c1ccccc1)c1ccccn1 | inconclusive: 31.6 µM [activator, full curve] | 
2 | CCN(CCCC(=O)c1ccc(F)cc1)CCc1ccccc1 | inconclusive: 0.1 µM [activator, full curve, poor fit] | 
3 | O=C(NCC(c1ccco1)N1CCN(c2ccccc2F)CC1)c1ccco1 (configuration not stated) | inconclusive: 2.51 µM [activator, full curve] | 
4 | O=C(NC1(C(F)(F)F)NC(=O)N(c2ccccc2)C1=O)c1cccs1 (configuration not stated) |  | inactive: 8.81%
5 | CCC1CCc2c(sc(NC(=O)C3CC=CCC3C(=O)O)c2C#N)C1 (configuration not stated) | active: 15.8 µM | 
6 | CN=c1scc(C)n1/N=C/c1ccc(O)c(O)c1O | active: 39.8 µM | 
7 | O=C(NCCN1CCN(c2ccccc2Cl)CC1)Nc1ccccc1 |  | inactive: 17.3%
8 | Cc1ccc(S(=O)(=O)N2CCOCC2)cc1NC(=O)CNCc1cccnc1 | active: 3.55 µM | 
9 | COc1ccc(-c2c(C#Cc3ccsc3)c3cc(-c4ccc5c(c4)OCO5)ccc3n2C)cc1 |  | inactive: 0.469%
10 | Cc1c(-c2csc(N)n2)cnn1C | active: 11.2 µM | 
11 | c1ccc(CCCN2CCN(c3ccccn3)CC2)cc1 | inconclusive: 0.891 µM [activator, full curve, poor fit] | 
12 | CC(C)CC[n+]1ccccc1/C=C/c1ccc(N(C)C)cc1 |  | inactive: 10.4%
13 | Cn1nc(C(F)(F)F)c(-c2ccc(F)cc2)c1NC(=O)c1ccco1 |  | inactive: 0.601%
14 | Cc1cc(C)c(C)c(OCC(O)CN2CCN(c3ccccn3)CC2)c1 (configuration not stated) | active: 3.98 µM | 
15 | CC(CCc1ccc(O)cc1)NCc1ccc(Cl)cc1Cl (configuration not stated) | active: 1.78 µM | 
16 | Cc1nn(-c2ccc(C(=O)N3CCN(S(=O)(=O)c4ccccc4C(F)(F)F)CC3)cc2)c(C)c1Cl | active: 0.794 µM | 
17 | O=C(c1ccco1)N1CCN(Cc2cccc(F)c2)CC1 | inconclusive: 6.31 µM [activator, full curve] | 
18 | O=C1CCN(CCCc2ccccc2)CCN1[C@H](CO)c1ccccc1 | inconclusive: 25.1 µM [activator, partial curve] | 
19 | Cc1cccc(C)c1OCC(O)CN1CCN(c2ccccn2)CC1 (configuration not stated) | active: 0.199 µM | 
20 | NC(=O)c1ccc(NC(=O)CN2CCN(c3ccccc3)CC2)cc1 | inconclusive: 3.98 µM [activator, partial curve] | 
21 | O=[N+]([O-])c1cc(Br)c2nsnc2c1N1CCOCC1 |  | inactive: -2.4%
22 | O=C(CCN1CCN(c2ccccc2F)CC1)Nc1ccccc1F | inconclusive: 126 µM [activator, partial curve, poor fit] | 
23 | O=C(CSc1nnc(Cc2ccccc2)n1-c1ccc(Cl)cc1)N1CCOCC1 |  | inactive: 2.05%
24 | O=C(c1ccccc1)N1CCN(CC#Cc2ccccc2)CC1 | inconclusive: 7.94 µM [activator, full curve] | 
25 | COc1ccccc1NC(=O)CN1CCN(C(=O)c2ccco2)CC1 | inconclusive: 31.6 µM [activator, single point] | 
26 | CC(C)(C)C(=O)Nc1ccc(F)cc1[N+](=O)[O-] | inconclusive: 56.2 µM [activator, partial curve, poor fit] | 

Row | SMILES | Potency | activation
27 | O=S(=O)(c1ccc(OCC(O)CN2CCN(c3ccccc3)CC2)cc1)N1CCOCC1 (configuration not stated) | inconclusive: 5.62 µM [activator, full curve] | 
28 | Cc1cc(=O)n2nc(N3CCC(C(=O)N4CCN(c5ccccc5)CC4)CC3)sc2n1 | inconclusive: 4.47 µM [activator, full curve, poor fit] | 
29 | CCc1cccc(CC)c1NC(=S)NCCc1ccc(O)c(O)c1 | active: 39.8 µM | 
30 | O=C(Cc1cccc(NC(=O)C2CCN(C(=O)C3CC3)CC2)c1)Nc1cccc(C(=O)N2CCCC2)c1 |  | inactive: -3.84%
31 | CC(CCc1ccc(O)cc1)NCc1ccc(Br)cc1 (configuration not stated) | inconclusive: 0.708 µM [activator, full curve] | 
32 | O=C(CN1CCN(c2ccccc2)CC1)Nc1ccc(-n2cnnn2)cc1 | inconclusive: 39.8 µM [activator, partial curve, poor fit] | 
33 | COc1ccc(-c2noc(CN3CCN(C(=O)c4cccs4)CC3)n2)c(OC)c1OC |  | inactive: 1.15%
34 | CC(CCc1ccc(O)cc1)N1CCC(Oc2ccc(C(=O)N3CCCC3)cc2)CC1 (configuration not stated) | inconclusive: 2 µM [activator, full curve] | 
35 | O=C(CN1CCN(c2ccccn2)CC1)Nc1ccc(F)c(F)c1 | inconclusive: 39.8 µM [activator, partial curve] | 
36 | COc1ccc(NS(=O)(=O)c2cccc(C(=O)N3CCC3)c2)cc1 |  | inactive: 4.01%
37 | CCOC(=O)c1c(NC(=S)Nc2ccccc2)sc2c1CCN(CC)C2 |  | inactive: -17.1%
38 | OC(COCc1ccccc1)CN1CCN(c2ccccc2)CC1 (configuration not stated) | inconclusive: 1.26 µM [activator, full curve] | 
39 | OC(COCc1ccc(Cl)cc1)CN1CCN(c2ccccn2)CC1 (configuration not stated) | inconclusive: 6.31 µM [activator, full curve] | 
40 | CC(OC(=O)c1nc(Cl)ccc1Cl)C(=O)NC1CCCCC1C (configuration not stated) |  | inactive: -3.53%
41 | O=C(CN1CCN(c2ccccc2)CC1)Nc1ccc(Oc2ccccc2)cc1 | inconclusive: 31.6 µM [activator, full curve] | 
42 | O=S(=O)(CCN1CCN(c2ccccn2)CC1)c1ccc(Cl)cc1Cl |  | inactive: 19.1%
43 | CCCCN(C)CCCNC(=O)CC1Oc2ccccc2NC1=O (configuration not stated) |  | inconclusive: 34.7% [activator]
44 | Clc1ncc(CN2CCN(c3ccccc3)CC2)s1 | inconclusive: 0.501 µM [activator, full curve] | 
45 | O=C(NCCCN1CCN(c2ccccc2F)CC1)C1CCN(S(=O)(=O)c2cccs2)CC1 | inconclusive: 0.224 µM [activator, full curve] | 
46 | Cc1ccc(OCCN2CCN(C(=O)CCC(=O)Nc3nnc(C)s3)CC2)cc1 | inconclusive: 1.12 µM [activator, full curve] | 
47 | COc1cccc2c1cc1c(=O)n(CC(=O)N3CCCCCC3)nc(C)n12 | inconclusive: 7.08 µM [activator, full curve] | 
48 | CCOc1ccc(S(=O)(=O)NCCC2=CCCCC2)c2ccccc12 |  | inactive: -3.37%
49 | COc1cc2c(C#CCCO)c(-c3ccc(C#N)cc3)oc(=O)c2cc1OC |  | inactive: 8.26%
50 | CCC(NC(C)C)C(O)c1ccc(O)c(O)c1 (configuration not stated) | inconclusive: 44.7 µM [activator, partial curve, poor fit] | 
51 | Cc1c(CC(=O)N2CCN(C(=O)C3COc4ccccc4O3)CC2)c(=O)oc2c(O)c(O)ccc12 (configuration not stated) | active: 28.2 µM | 
52 | CC(=O)Nc1ccc(SCCN2CC[C@@H](C)CCC2=O)cc1 |  | inactive: -0.221%

Row | SMILES | Potency | activation
53 | OC(COc1ccc(Cl)cc1)CN1CCN(c2ccccc2)CC1 (configuration not stated) | inconclusive: 3.16 µM [activator, partial curve, poor fit] | 
54 | Cc1cc(NC(=O)CSCC(=O)Nc2cc(C(F)(F)F)ccc2N2CCOCC2)no1 |  | inactive: -6.1%
55 | CC(C)(C)C1CCC(OCC(O)CN2CCN(c3ccccn3)CC2)CC1 (configuration not stated) | active: 0.631 µM | 
56 | Cc1cc(NC(=O)CN2CCN(c3ccccn3)CC2)ccc1Br | active: 15.8 µM | 
57 | COCc1cc(C)nc(OCC(=O)N/N=C/c2ccc(O)cc2)c1C#N |  | inactive: 4.67%
58 | O=Cc1c(N2CCCCCC2)nc2ccccn2c1=O |  | inactive: -0.58%
59 | CSCCC(NC(=O)COc1ccccc1)C(=O)N1CC(C)OC(C)C1 (configuration not stated) |  | inactive: -5.77%
60 | COc1cc(CN2CCC(C(=O)N3CCN(c4ccccc4F)CC3)CC2)ccc1O | inconclusive: 28.2 µM [activator, partial curve] | 
61 | O=C(Cn1cnc2ccccc2c1=O)N1CCN(Cc2ccc3c(c2)OCO3)CC1 |  | inactive: 15.9%
62 | CN=c1scc(-c2ccco2)n1/N=C/c1ccc(O)c(O)c1 | inconclusive: 100 µM [activator, single point] | 
63 | OCC1(Cc2cccc(C(F)(F)F)c2)CCN(Cc2cc3ccccc3o2)CC1 | inconclusive: 2.24 µM [activator, full curve] | 
64 | O=C(c1ccco1)N1CCC(N2CCN(c3ccccc3)CC2)CC1 | inconclusive: 6.31 µM [activator, partial curve] | 
65 | Cc1ccc(-c2[nH]ncc2CN2CCN(C(=O)c3cccs3)CC2)cc1C | inconclusive: 11.2 µM [activator, partial curve] | 
66 | Cc1cccc(NC(=O)N2CCc3ccccc3C2)c1C |  | inactive: -13.1%
67 | O=C(C1CCN(c2ncnc3c2nc2n3CCCCC2)CC1)N1CCN(c2ccccc2F)CC1 | inconclusive: 35.5 µM [activator, partial curve, poor fit] | 
68 | N#Cc1c(/N=C/c2ccc(-c3ccc(C(=O)O)c(Cl)c3)o2)sc2c1CCCC2 | active: 39.8 µM | 
69 | CN(C)S(=O)(=O)c1cc(NC(=O)CN2CCN(c3ccccc3)CC2)ccc1Cl | active: 50.1 µM | 
70 | Clc1ccc(CN2CCN(c3ccccc3)CC2)cn1 | inconclusive: 0.794 µM [activator, full curve] | 
71 | c1ccc(-c2ccc(CN3CCN(c4ncccn4)CC3)cc2)cc1 | inconclusive: 22.4 µM [activator, full curve] | 
72 | O=C(c1ccco1)N1CCN(CC(O)COc2ccc(Br)cc2)CC1 (configuration not stated) | inconclusive: 5.62 µM [activator, full curve] | 
73 | COc1cc(Br)cc(CN2CCN(c3ncccn3)CC2)c1O | inconclusive: 2.82 µM [activator, partial curve] | 
74 | COc1cccc(OCC(O)CN2CCN(c3ccccn3)CC2)c1 (configuration not stated) | inconclusive: 1.26 µM [activator, full curve, poor fit] | 
75 | CN(c1ccc(C(=O)N2CCN(Cc3ccccc3)CC2)cc1)S(=O)(=O)c1ccccc1 |  | inactive: 2.13%
76 | [O-]/[N+](=C/c1ccccc1)c1ccccc1 |  | inactive: 1.96%
77 | O=C(c1ccccc1)[C@@H]1[C@@H](C(=O)c2ccc(F)cc2)[C@@]2(C(=O)Nc3ccccc32)[C@H]2c3ccccc3C=CN12 |  | inactive: -4.25%
